In paper PMC4336329 (PLoS ONE, 2015):
Hit rate of the full screen: of about 310,000 compounds, about 14,000 (4.5%) showed an effect of 50% or more. Effects have a minus sign here. Some of the results follow.

The compounds below were run against human ether-à-go-go-related gene (hERG) potassium channel (human, UniProt Q12809) (assay: primary screen, population patch clamp on CHO cells stably expressing hERG).
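Also: peak tail current of the secondary pulse compared with the same well before compound.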

Chain of human ether-à-go-go-related gene (hERG) potassium channel (Q12809 whole entry, looked up): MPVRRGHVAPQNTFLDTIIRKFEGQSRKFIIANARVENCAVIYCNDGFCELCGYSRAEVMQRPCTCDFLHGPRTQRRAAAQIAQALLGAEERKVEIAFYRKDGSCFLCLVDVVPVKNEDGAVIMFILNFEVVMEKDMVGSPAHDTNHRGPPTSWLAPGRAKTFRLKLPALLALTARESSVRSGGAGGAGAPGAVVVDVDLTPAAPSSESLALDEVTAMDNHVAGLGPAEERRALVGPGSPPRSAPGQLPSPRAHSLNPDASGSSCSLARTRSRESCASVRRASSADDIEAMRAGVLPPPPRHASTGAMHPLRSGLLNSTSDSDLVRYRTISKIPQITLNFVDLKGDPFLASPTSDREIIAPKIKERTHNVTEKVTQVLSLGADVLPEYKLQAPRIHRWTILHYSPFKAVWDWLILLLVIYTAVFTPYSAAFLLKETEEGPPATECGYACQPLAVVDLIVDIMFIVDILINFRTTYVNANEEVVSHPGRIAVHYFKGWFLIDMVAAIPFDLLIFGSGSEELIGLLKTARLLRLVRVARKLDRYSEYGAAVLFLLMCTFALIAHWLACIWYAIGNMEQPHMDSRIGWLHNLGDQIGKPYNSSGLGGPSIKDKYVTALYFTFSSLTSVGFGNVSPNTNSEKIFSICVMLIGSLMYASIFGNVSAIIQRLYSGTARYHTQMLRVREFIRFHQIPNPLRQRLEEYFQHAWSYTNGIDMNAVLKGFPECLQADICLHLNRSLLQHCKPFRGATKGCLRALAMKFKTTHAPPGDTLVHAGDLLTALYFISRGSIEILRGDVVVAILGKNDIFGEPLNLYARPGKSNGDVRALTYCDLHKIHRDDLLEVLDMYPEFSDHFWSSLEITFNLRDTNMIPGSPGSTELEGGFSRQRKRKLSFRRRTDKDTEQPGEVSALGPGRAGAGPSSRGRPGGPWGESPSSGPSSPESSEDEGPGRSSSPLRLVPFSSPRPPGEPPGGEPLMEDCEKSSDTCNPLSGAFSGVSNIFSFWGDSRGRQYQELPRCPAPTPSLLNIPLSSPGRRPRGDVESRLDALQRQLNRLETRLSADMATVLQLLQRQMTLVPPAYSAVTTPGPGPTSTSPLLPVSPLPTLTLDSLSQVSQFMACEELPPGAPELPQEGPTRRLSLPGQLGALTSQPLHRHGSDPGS

| Structure (SMILES) | hERG current change (%, negative = inhibition) at 10uM [%] |
| --- | --- |
| Clc1ccc(-c2nnc(-c3ccccc3)nc2-c2c[nH]c3ccccc23)cc1 | 29.7 |
| COC(=O)c1ccc(CNC(=O)CCNC(=O)c2ccco2)cc1 | -1.99 |
| COc1ccccc1NC(=O)N1CCCC1 | 16.6 |
| COc1cc(C(=O)Nc2nccs2)ccc1OCc1c(C)noc1C | 15.3 |
| O=C(CSc1nc2ccccc2[nH]1)NCc1ccc(F)cc1 | -9.15 |
| CN(CC(=O)Nc1ccc(Cl)c(C(F)(F)F)c1)C(=O)C1CC(=O)N(C2CCCC2)C1 (centres unmarked) | -28.9 |
| Cc1ccc2cccc(OCC(=O)Nc3ccc4c(c3)OCO4)c2n1 | -15.5 |
| COc1cccc(NC(=O)c2ccc(N3C(=O)C4CC=CCC4C3=O)cc2)c1 (centres unmarked) | -3.88 |
| Cc1ccc(N2C(=O)CN=C2Nc2nc(C)cc(C)n2)cc1 | 0.118 |
| COC(=O)c1ccc(OCC2c3cc(OC)c(OC)cc3CCN2C(=O)C2CC2)cc1 (centres unmarked) | -56.3 |
| COC(=O)C1N[C@@H]([C@@H](NC(=O)COc2ccccc2)C(=O)NCc2ccsc2)SC1(C)C (some centres unmarked) | -18.9 |
| Cc1cc(C(=O)Cn2nc(C(=O)O)c3ccccc3c2=O)c(C)n1CCc1ccc(Cl)cc1 | -10.4 |
| CCCNC(=O)CN1C(=O)COc2ccc(S(=O)(=O)N3CC(C)CC(C)C3)cc21 (centres unmarked) | -5.01 |
| COc1ccc(NC(=S)N(CCCN2CCC(C)CC2)Cc2cccs2)cc1 | -68.2 |
| C=CCNC(=S)N1CCN(Cc2ccccc2)CC1.O=C(O)C(=O)O | 6.48 |
| Cc1ccc(OCCSc2nc(NC(C)C)nc(NC(C)C)n2)cc1 | -11.6 |
| Nc1c2c(nc3sc4c(c13)CCCC4)CCCCC2 | -6.3 |
| CCCOc1ccc(C(CC(=O)O)NC(=O)Cc2ccccc2)cc1 (centres unmarked) | 9.79 |
| COc1ccccc1NC(=O)CN(C)S(=O)(=O)c1ccc2c(c1)CCC(=O)N2 | -45.3 |
| CCC(C)NC(=O)CSc1ncnc2sccc12 (centres unmarked) | 11.7 |
| CSc1ccc(N2C(=O)NC3(CCCCC3)C2=O)cc1 | 5.31 |
| CCOc1ccc2oc(C(=O)OCC(=O)N3CCCC(C)C3)c(C)c2c1 (centres unmarked) | -44.9 |
| O=C(COC(=O)Cn1cnc2ccccc2c1=O)NCc1ccccc1Cl | 10.9 |

| Structure (SMILES) | hERG current change (%, negative = inhibition) at 10uM [%] |
| --- | --- |
| CSc1nc(Cl)c(Cc2ccc(OCC(C)C)cc2)c(N2CCOCC2)n1 | 11.4 |
| O=S1(=O)CC/C(=N\Nc2ccc(F)cc2)c2ccsc21 | -13.7 |
| Cc1cc2c(c(=O)o1)C(C1C=CCCC1)C(C#N)=C(N)O2 (centres unmarked) | -4.08 |
| COc1ccc(S(=O)(=O)N2CCCCC2)cc1NC(=O)c1ccco1 | -9.54 |
| CC(C)c1ccc(CN2CCC(C(=O)NCc3cccnc3)CC2)cc1.O=C(O)C(=O)O | -52.1 |
| O=C(CCCN1C(=O)/C(=C/c2ccccc2)SC1=S)Nc1ccc(C(=O)O)c(O)c1 | 6.6 |
| CC(=O)c1ccc(OCc2ncc(C(F)(F)F)cc2Cl)cc1 | -3.48 |
| O=C(NCC1CCCO1)C(C(=O)c1ccccc1)n1cc(Cl)ccc1=O (centres unmarked) | -4.07 |
| COC(=O)C(C)Sc1nnc2n(-c3cccc(C)c3)c(=O)c3c4c(sc3n12)CCCC4 (centres unmarked) | -19.3 |
| COc1ccc(OC)c(/C=N/c2c(-c3ccc(O)c(OC)c3)nc3ccccn23)c1 | 2.87 |
| CC(=O)N1CCN(c2ccc(NCc3ccco3)cc2)CC1 | 8.93 |
| Cc1csc(N(C(=O)c2cccc(S(=O)(=O)N(C)C)c2)c2ccccc2)n1 | -15.9 |
| O=C(NC1CC1)C1=NOC(CNc2ncc(C(F)(F)F)cc2Cl)C1 (centres unmarked) | -48.6 |
| CCC(CC)C(=O)NCCc1ccc(F)cc1 | 12.1 |
| CCOC(=O)c1c(C)[nH]c(C(=O)N2CCN(c3ccc(OC)cc3)CC2)c1C | -0.628 |
| O=C(CCNC(=O)c1ccc(Br)cc1)Nc1cc(Cl)ccc1-n1cncn1 | -39.4 |
| CCOC(=O)N1CCN(C(=O)c2cn(CC)c3ccc(S(=O)(=O)N4CCCC4)cc3c2=O)CC1 | -8.59 |
| CN(C)C(=O)c1nc2ccc(Cl)cn2c1CN1CCCC(OCc2cccnc2)C1 (centres unmarked) | -57.9 |
| CC(=O)c1c(C)[nH]c(C(=O)COC(=O)c2c(C)noc2C)c1C | 6.23 |
| O=S(=O)(Cc1ccccc1)Nc1cccc(Br)c1 | 7.8 |
| COCCCNc1nc2ccccc2nc1NS(=O)(=O)c1ccc(F)cc1 | 14.6 |
| COC(=O)c1c(NC(=O)c2ccco2)sc2c1C(C(=O)OC)CC2 (centres unmarked) | 9.19 |
| COc1ccc(-n2c(=S)[nH]c3sc4c(c3c2=O)CCc2ccccc2-4)cc1 | 17.1 |

| Structure (SMILES) | hERG current change (%, negative = inhibition) at 10uM [%] |
| --- | --- |
| C=C(C)C1CC=C(C)/C(=N/Nc2ccccc2[N+](=O)[O-])C1 (centres unmarked) | 15.9 |
| O=C(CCCc1c[nH]c2ccccc12)Nc1ccc(S(=O)(=O)Nc2ncccn2)cc1 | -5.28 |
| COc1ccccc1CNc1nc2nc(C)cc(=O)n2[nH]1 | 3.67 |
| Cc1ccc(CN=C2Nc3ccccc3CS2)cc1 | 12.7 |
| O=C(CCN1CCN(c2ccccc2F)CC1)Nc1ccc2c(c1)OCO2 | -27.6 |
| Cc1cccc(NC(=O)CNC(=O)COc2cc(F)ccc2[N+](=O)[O-])c1C | 1.21 |
| CC(=O)/C(=N/Nc1ccccc1Cl)Sc1nnc(C(O)c2ccccc2)n1-c1ccccc1 (centres unmarked) | -23.7 |
| CC(O)/C=C/c1ccc2ccccc2n1 (centres unmarked) | -2.74 |
| Cc1ccc(C)c(S(=O)(=O)NCc2ccncc2)c1 | 4.22 |
| CC(C)COc1ccc(/C(O)=C2/C(=O)C(=O)N(CCN(C)C)C2c2ccncc2)cc1 (centres unmarked) | 15.8 |
| CC1CCCN(C(=S)SCC(=O)c2cc(Br)cc(Br)c2O)C1 (centres unmarked) | 5.78 |
| CN(CC(=O)NCCc1ccc(S(N)(=O)=O)cc1)CC(=O)Nc1ccccc1Cl | -3.11 |
| COc1ccc(CNC(=S)Nc2ccc(F)c(Cl)c2)cc1OC | -2.94 |
| CN(C)C(=S)N=Nc1[nH]c2ccccc2c1O | 16.4 |
| COc1ccccc1N=C(C)C1=C(O)COC1=O | 17.4 |
| O=C(COc1ccccc1)NCC(=O)Nc1cccc2ccccc12 | 9.81 |
| CCOc1cc(/C=C/C(=O)O)ccc1OCc1ccccc1 | 3.01 |
| Cc1cccc(C)c1NC(=S)NCc1ccccc1 | 4.74 |
| Cc1ccc(CNS(=O)(=O)c2ccc([N+](=O)[O-])cc2)cc1 | 6.33 |
| Cc1cc(CNC(=O)COC(=O)c2ccc(Cl)c(N)c2)cc(C)c1O | -0.169 |
| O=C(COC(=O)c1ccncc1)Nc1cc(Cl)ccc1Cl | 6.07 |
| CCN(CC(=O)NC(C)C)C(=O)[C@@H](NC(=O)c1ccco1)C(C)C | 11.5 |
| CN(C)c1ccc(C(=O)Nc2cccc(S(=O)(=O)NC3=NCCCCC3)c2)cc1 | -8.02 |

| Structure (SMILES) | hERG current change (%, negative = inhibition) at 10uM [%] |
| --- | --- |
| O=C(c1cn(-c2ccccc2)nc1-c1ccc(F)cc1)N1CCCCC1 | -10.6 |
| COC(=O)c1[nH]c2c(c1C)C(=O)CC(c1ccc(OC)cc1)C2 (centres unmarked) | 11 |
| CN(C)C(=O)Cn1cnc2c(cnn2-c2ccc(F)cc2)c1=O | -2.06 |
| COc1cc(/C=C/C(=O)OCC(=O)NCc2ccco2)ccc1OC(F)F | 6.87 |
| Cc1nc2ccccc2c(C)c1C(=O)c1ccc(F)cc1.Cl | 7.17 |
| Cc1ccc(S(=O)(=O)NCc2csc(C)n2)c(C)c1 | 10.1 |
| O=C(Nc1ccc2c(c1)OCCO2)c1cccnc1Oc1ccccc1 | 10.9 |
| O=c1oc2ccccc2c(N2CCOCC2)c1[N+](=O)[O-] | 10.2 |
| Cc1cccc(NC(=O)c2cc3cc([N+](=O)[O-])ccc3s2)n1 | 9.94 |
| COc1ccc(S(N)(=O)=O)cc1-c1nnc2c3ccccc3c(C)nn12 | 14.5 |
| O=C(Nc1ccc(Cl)cc1)Nc1nnc(CSCc2ccccc2Cl)s1 | -9.46 |
| COc1ccc(NC(=O)CSc2nnc(-c3cccs3)n2C)cc1OC | 8.13 |
| CCOc1ccc(Nc2nc(N(C)c3ccccc3)nc(N)c2[N+](=O)[O-])cc1 | 31.4 |
| CC(C)(C)NS(=O)(=O)c1ccc(CCC(=O)O)cc1 | -3.85 |
| O=C(CCn1cccc1)NCc1ccccc1 | 8.12 |
| COc1cccc(C2NC(CCSC)(C(=O)O)C3C(=O)N(C(C)C)C(=O)C23)c1O (centres unmarked) | -9.53 |
| O=C(N=Nc1c(O)[nH]c2ccc(Br)cc12)c1cc(-c2cccc3ccccc23)n[nH]1 | 12.3 |
| O=C(Nc1nc(-c2ccccn2)cs1)c1cc2ccccc2o1 | -8.37 |
| COc1ccccc1NC(=O)CCC(=O)Nc1nnc(C(F)(F)F)s1 | -7.32 |
| COc1ccc(CNC(=O)C2CCCN2)cc1OC.O=C(O)C(=O)O (centres unmarked) | 11.1 |
